From PubChem BioAssay AID463173 (ICCB-Longwood Screening Facility, Harvard Medical School, 2010)
In all, about 52,000 compounds went through this assay and about 1,700 (3.3%) were called active. No stated cut-off is given here; in the data, active means survival mostly below about 52% (no sharp cut-off); inactive means mostly above about 56%. The list shows a part of the results.

These compounds were tested on Wild type (assay: growth inhibition of S. aureus wild type versus tarO mutant, primary screen, teichoic acid synthesis inhibitors, RN4220, OD600 (AID 463173)). Conditions: S. aureus RN4220 wild type/DeltatarO growth, OD600, 18 h, active compounds read low, screened at 18.75 µg/mL (by protocol).
In the case of `CCOC(=O)c1sc(N2C(=O)c3oc4ccccc4c(=O)c3C2c2ccc(C(C)(C)C)cc2)nc1C` (stereo not given), the survival is reported as inactive: 62%.
For `CCCCOc1ccc(C(=O)Nc2cc(-c3ccc(C)cc3)no2)cc1`, the survival was inactive: 88%.
In the case of `Cc1ccccc1CNC(=O)Cn1c(C)c2cnn(-c3ccccc3)c(=O)c2c1C`, the survival is reported as inactive: 81%.
In the case of `Cc1oc2ncn(CC(C)C)c(=O)c2c1C(=O)NCCc1ccc(Cl)cc1`, the survival is reported as inactive: 87%.
For `Cc1cccn2c3c(c(=O)nc12)C(c1cccc(F)c1)CC(=O)N3` (stereo not given), the survival was inactive: 81%.
`CCC1CCCCN1Cc1c(O)ccc2c(=O)c(Oc3ccccc3Cl)c(C(F)(F)F)oc12` (stereo not given) was tested, and the survival was inactive: 71%.
In the case of `Cc1ccc(CNC(=O)c2ccc3c(c2)CCN3S(=O)(=O)c2ccccc2)cc1`, the survival is reported as inactive: 84%.
For `O=C(Cn1cnc2nc3c(cc2c1=O)CCCC3)N1CCN(c2cccc(C(F)(F)F)c2)CC1`, the survival was active: 14%.
`Cc1ccc(C)c(NC(=O)CSc2c(C)cnc3c2c(=O)n(C)c(=O)n3C)c1` was tested, and the survival was inactive: 55%.
With `Cc1ccc(N(C)C(=O)CC(C)S(=O)(=O)c2ccc3c(c2)NC(=O)CO3)cc1` (stereo not given) the survival was inactive: 129%.
`CCc1ccc(NC(=O)Cn2ccn(-c3ccc(OC)cc3)c(=O)c2=O)cc1` was tested, and the survival was inactive: 96%.
For `CCCOC(=O)C1=C(C)OC23OC(N)=C(C#N)C12C(=O)c1ccccc13` (stereo not given), the survival was inactive: 122%.
For `COc1ccc(CCNC(=O)c2csc3c2CCCCC3)c(OC)c1`, the survival was inactive: 76%.
`COc1ccc(Cn2c(C(=O)O)c(CNC3CCCC3)c3ccc(C)cc32)cc1` was tested, and the survival was inactive: 55%.
In the case of `CC(=O)c1ccc(S(=O)(=O)Nc2ccc(-c3ccc(N4CCCCC4)nn3)cc2)cc1`, the survival is reported as inactive: 72%.
For `CCC(=O)N1c2ccccc2CC1C(=O)N1CCN(c2cccc(OC)c2)CC1` (stereo not given), the survival was inactive: 65%.
With `Cc1cccc(NC(=O)CC2Nc3cccc4cccc(c34)NC2=O)c1` (stereo not given) the survival was inactive: 86%.
With `COC(=O)c1cc2oc(C)cc2n1Cc1cc(C)ccc1C` the survival was active: -2%.
`CCc1nc(N=C(N)N)nc2ccc(C)cc12` was tested, and the survival was inactive: 97%.
For `CCOc1ccc(NC(=O)CSc2nc(-c3cccc(Cl)c3)nc3c2Cc2c(CO)cnc(C)c2O3)cc1`, the survival was inactive: 84%.
`Cc1ccc(C)c(NC(=O)Cn2ncc3c([nH]c4ccccc43)c2=O)c1` was tested, and the survival was inactive: 45%.
With `O=c1c2c(nc3cc(-c4cccc(Cl)c4)[nH]n13)CCCC2` the survival was inactive: 93%.
`Cc1cc2c(cc1S(=O)(=O)CCC(=O)N(C)C1CCCCC1)OCC(=O)N2` was tested, and the survival was inactive: 85%.
`CCCCN1C(=O)CN(C2CCCCCC2)C(=O)C1c1ccc(OCC)c(OC)c1` (stereo not given) was tested, and the survival was inactive: 78%.
In the case of `COCCN(Cc1ccco1)C(=O)Cn1ncc2c([nH]c3ccccc32)c1=O`, the survival is reported as inactive: 79%.
In the case of `COc1cccc(NC(=O)CCc2nc(-c3ccc(C(C)(C)C)cc3)no2)c1`, the survival is reported as inactive: 91%.
For `Cc1ccc(-c2nnn3c2nc(NCCc2ccccc2)c2ccccc23)cc1`, the survival was inactive: 87%.
In the case of `CN(c1ncnc2c1c(-c1ccccc1)cn2-c1cccc(Cl)c1)C1CCCCC1`, the survival is reported as inactive: 89%.
For `CN1CCc2c(sc3nc(=S)[nH]c(N)c23)C1`, the survival was inactive: 109%.
In the case of `O=C(c1ccco1)N1CCN(c2c3c(nc4cc(-c5cccc(F)c5)nn24)CCCC3)CC1`, the survival is reported as inactive: 113%.
`COCC(C)NCc1cc(F)ccc1F` (stereo not given) was tested, and the survival was inactive: 109%.
`Cc1cccc(-n2c(=O)c3c(c4cc(C)ccc4n3C)n(C)c2=O)c1` was tested, and the survival was inactive: 74%.
With `CCc1ccc(CN(Cc2ccco2)C(=O)COc2ccccc2Cl)cc1` the survival was inactive: 85%.
With `Cc1ccc(-c2nnc(Nc3cccc(Br)c3)c3ccccc23)cc1S(=O)(=O)N1CCCCC1` the survival was inactive: 90%.
For `Cc1ccc(C)c(C(=O)CSc2nc(-c3ccccc3)nc3c2CCCC3)c1`, the survival was active: 6%.
`Cc1c(Cl)cccc1NC(=O)N1CCC(CN2CCOCC2)CC1` was tested, and the survival was inactive: 85%.
With `O=C(NC1=NCCS1)c1ccccc1` the survival was inactive: 107%.
`CC(C)C(=O)Nc1nnc(S(=O)(=O)N(C)Cc2ccc(F)cc2)s1` was tested, and the survival was inactive: 87%.
`CCOc1ccccc1NC(=O)C1CCCN(c2ncnc3onc(-c4ccc(F)cc4)c23)C1` (stereo not given) was tested, and the survival was inactive: 58%.
In the case of `COc1ccc(NC(=O)C2CCN(S(=O)(=O)c3cn(C)cn3)CC2)cc1Cl`, the survival is reported as inactive: 73%.
With `CC(=O)OCc1cnc(C)c2oc(=O)c(C(=O)Nc3cc(F)ccc3C)cc12` the survival was inactive: 137%.
`O=C(c1ccc([N+](=O)[O-])cc1)N(Cc1ccco1)c1ccccn1` was tested, and the survival was inactive: 83%.
`COc1ccc(C2C(C(=O)Nc3ccc(C)cc3C)=C(C)Nc3nc(SC)nn32)cc1OC` (stereo not given) was tested, and the survival was inactive: 71%.
In the case of `Cc1ccc(NC(=O)CSc2nnc(COc3ccc(Cl)cc3)o2)cc1`, the survival is reported as inactive: 87%.
For `O=S1(=O)CCC(NCc2ccccc2)C1` (stereo not given), the survival was inactive: 109%.
With `NC(=O)CN1C(=O)C2(SCC(=O)N2c2cccc(F)c2)c2ccccc21` (stereo not given) the survival was inactive: 74%.
In the case of `CCCCn1c(=O)c2oc3ccccc3c2n(Cc2ccc(OC)cc2)c1=O`, the survival is reported as inactive: 115%.
For `Cc1cc(C)cc(NC(=O)c2cn3c4c(ccc(Cl)c4c2=O)OC(C)C3)c1` (stereo not given), the survival was inactive: 90%.
For `COc1ccc(S(=O)(=O)Nc2ccc3c(c2)sc(=O)n3C)cc1Cl`, the survival was inactive: 127%.
For `Cc1cccc2cc(CN(Cc3ccco3)C(=O)c3ccccc3)c(=O)[nH]c12`, the survival was inactive: 104%.
With `CCOC(=O)CCSc1nc(C)cc(C(F)(F)F)c1C#N` the survival was inactive: 106%.
`COc1ccccc1CNC(=O)c1ccc(-c2nc(CS(=O)c3ccc(C)cc3)c(C)o2)cc1` (stereo not given) was tested, and the survival was inactive: 131%.
`CCOc1ccc(OCCOCCn2c(-c3ccc(Cl)cc3)nc3ccccc3c2=O)cc1` was tested, and the survival was inactive: 39%.
`COc1ccc(Nc2ncnc3c2cnn3-c2cc(Cl)ccc2C)cc1OC` was tested, and the survival was inactive: 76%.
With `Cc1cccc(-c2nc(SCCCOc3cc(C)c(Cl)c(C)c3)n3[nH]c(=O)cc3n2)c1` the survival was inactive: 73%.
With `COc1ccc2c(c1)c1c(c(=O)n(CCc3ccccc3)c(=O)n1Cc1cccc(C)c1)n2C` the survival was inactive: 81%.
For `CCOC(=O)c1ccc(NC(=O)CCCn2nc(C)c3sc4ccccc4c3c2=O)cc1`, the survival was inactive: 92%.
`CSc1ncc(C(=O)NCc2ccc(F)cc2)c(-c2ccccc2)n1` was tested, and the survival was inactive: 87%.
`CCCCN(CC)CCCNC(=O)Cn1nc(CC)n2c(cc3sccc32)c1=O` was tested, and the survival was inactive: 81%.
For `COC(=O)CC(=O)CSc1nc2cc(C(=O)NC(C)C)ccc2c(=O)n1CCc1ccccc1`, the survival was inactive: 78%.
For `CNc1nc(SCc2ccccc2)nc(N2CCOCC2)n1`, the survival was inactive: 110%.
In the case of `CCCc1oc2ccc(NS(=O)(=O)c3ccc(OCC)cc3)cc2c1C(=O)OCC`, the survival is reported as inactive: 44%.
With `O=C(Cc1ccc(-c2ccccc2)cc1)NCCS(=O)(=O)N1CCN(c2cccc(Cl)c2)CC1` the survival was inactive: 64%.
`CS(=O)(=O)c1ncc(Cl)c(C(=O)N2CCN(c3cccc(Cl)c3)CC2)n1` was tested, and the survival was inactive: 38%.
`Cc1nc2cc(-c3ccc(Cl)cc3)nn2c(C)c1CCC(=O)N1CCN(c2ccccc2)CC1` was tested, and the survival was inactive: 123%.
With `O=C(CN1C(=O)COc2ccc(S(=O)(=O)N3CCOCC3)cc21)NCc1ccc(Cl)cc1` the survival was inactive: 78%.
`CCN(C(=O)CSc1nnc(-c2cc3occc3n2C)n1-c1ccccc1C)c1ccccc1` was tested, and the survival was inactive: 129%.
With `CCOc1ccc(Nc2sc(C(=O)c3ccc(F)cc3)c(N)c2S(=O)(=O)c2ccc(C)cc2)cc1` the survival was inactive: 64%.
In the case of `Cc1oc2ncn(CC(C)C)c(=O)c2c1C(=O)NCc1cccc(Cl)c1`, the survival is reported as inactive: 71%.
For `Cc1ccc(-c2onc(C)c2C)cc1S(=O)(=O)N1CCC(C)CC1`, the survival was inactive: 82%.
In the case of `Cc1ccc(Cn2c(C(=O)Nc3ccc(Cl)cc3)cc3sccc32)cc1`, the survival is reported as inactive: 122%.
In the case of `CC(C)Oc1ccc(CNC(=O)c2cc3cccc4c3n2CC(C)S4)cc1` (stereo not given), the survival is reported as inactive: 90%.
`CCc1ccc(-c2nc3c(c(SCc4ccccc4)n2)Cc2c(CO)cnc(C)c2O3)cc1` was tested, and the survival was inactive: 89%.
`CCN1/C(=C\C(=O)C2CC2)Sc2ccccc21` was tested, and the survival was inactive: 112%.
`CCOc1ccc(C2C(=O)N(C3CCCCC3)CC(=O)N2Cc2ccccc2OC)cc1OC` (stereo not given) was tested, and the survival was inactive: 66%.
`COc1cc(Cl)c(C)cc1NC(=O)CNC(=O)Cn1ccc2ccccc2c1=O` was tested, and the survival was inactive: 65%.
With `COc1ccccc1N(CC(=O)NC1CCCCC1)C(=O)c1csnn1` the survival was inactive: 104%.
In the case of `COc1ccc(Cl)cc1NC(=O)c1ccc(CN2C(=O)CCn3nc(C)cc32)cc1`, the survival is reported as inactive: 65%.
In the case of `Cc1ccc(C)c(NC(=O)CSc2nc(=O)n(CCN3CCOCC3)c3c2CCC3)c1`, the survival is reported as inactive: 77%.
`COc1cc2c(cc1OC)C(COc1ccc3c(C)cc(=O)oc3c1)N(C(=O)c1ccc(C)cc1)CC2` (stereo not given) was tested, and the survival was inactive: 72%.
With `COc1ccc(C2c3c(n(C)c4ccccc34)C(=O)N2CC(=O)Nc2c(C)cc(C)cc2C)cc1` (stereo not given) the survival was inactive: 66%.
`CC(C)Cn1cc(NC(=O)NCc2ccc(Cl)cc2)c2ccccc2c1=O` was tested, and the survival was inactive: 88%.
`CCC(=O)N1c2ccccc2CC1C(=O)NCCCN1CCN(c2cccc(Cl)c2)CC1` (stereo not given) was tested, and the survival was inactive: 80%.
With `COc1ccc(Br)c2c1-c1nc(NC(=O)c3ccc(F)cc3)sc1C2` the survival was inactive: 91%.
In the case of `CCOC(=O)N1CCC(NC(=O)c2ccc3c(c2)N(Cc2ccccc2)C(=O)c2ccccc2S3(=O)=O)CC1`, the survival is reported as inactive: 81%.
With `CCOc1ccccc1CNC(=O)C(CC)n1nc(C)c2c(C)n(-c3ccccc3)nc2c1=O` (stereo not given) the survival was inactive: 88%.
`Cc1c(C(=O)NCc2ccccc2Cl)sc2nc3n(c(=O)c12)CCCC3` was tested, and the survival was inactive: 78%.
With `O=C(Nc1ccc(Cl)cc1)c1ccc2oc(=O)n(Cc3ccccc3)c2c1` the survival was inactive: 63%.
With `Cc1ccc2c(c1)C(=O)OC(C(=O)Nc1ccc(C(=O)O)cc1)C2` (stereo not given) the survival was inactive: 79%.
With `COCCCNc1nc2c(c(=O)n(Cc3ccccc3)c(=O)n2C)n1C` the survival was inactive: 90%.
